# Measurements taken from publication PMC4336329 (PLoS ONE, 2015).
# Among all 310,000 compounds or so, about 14,000 (4.5%) showed an effect of 50% or more. The effect is printed as a negative number. This is one part of the list. Where a SMILES comes first, the peptide text is derived from it. The star is where a group is joined. Boc = CC(C)(C)OC(=O)*
# Molecular target: human ether-à-go-go-related gene (hERG) potassium channel (human, UniProt Q12809)
# Test: primary screen, population patch clamp on CHO cells stably expressing hERG
# 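Also: peak tail current of the secondary pulse compared with the same well before compound.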
# human ether-à-go-go-related gene (hERG) potassium channel, sequence (Q12809 whole entry, looked up): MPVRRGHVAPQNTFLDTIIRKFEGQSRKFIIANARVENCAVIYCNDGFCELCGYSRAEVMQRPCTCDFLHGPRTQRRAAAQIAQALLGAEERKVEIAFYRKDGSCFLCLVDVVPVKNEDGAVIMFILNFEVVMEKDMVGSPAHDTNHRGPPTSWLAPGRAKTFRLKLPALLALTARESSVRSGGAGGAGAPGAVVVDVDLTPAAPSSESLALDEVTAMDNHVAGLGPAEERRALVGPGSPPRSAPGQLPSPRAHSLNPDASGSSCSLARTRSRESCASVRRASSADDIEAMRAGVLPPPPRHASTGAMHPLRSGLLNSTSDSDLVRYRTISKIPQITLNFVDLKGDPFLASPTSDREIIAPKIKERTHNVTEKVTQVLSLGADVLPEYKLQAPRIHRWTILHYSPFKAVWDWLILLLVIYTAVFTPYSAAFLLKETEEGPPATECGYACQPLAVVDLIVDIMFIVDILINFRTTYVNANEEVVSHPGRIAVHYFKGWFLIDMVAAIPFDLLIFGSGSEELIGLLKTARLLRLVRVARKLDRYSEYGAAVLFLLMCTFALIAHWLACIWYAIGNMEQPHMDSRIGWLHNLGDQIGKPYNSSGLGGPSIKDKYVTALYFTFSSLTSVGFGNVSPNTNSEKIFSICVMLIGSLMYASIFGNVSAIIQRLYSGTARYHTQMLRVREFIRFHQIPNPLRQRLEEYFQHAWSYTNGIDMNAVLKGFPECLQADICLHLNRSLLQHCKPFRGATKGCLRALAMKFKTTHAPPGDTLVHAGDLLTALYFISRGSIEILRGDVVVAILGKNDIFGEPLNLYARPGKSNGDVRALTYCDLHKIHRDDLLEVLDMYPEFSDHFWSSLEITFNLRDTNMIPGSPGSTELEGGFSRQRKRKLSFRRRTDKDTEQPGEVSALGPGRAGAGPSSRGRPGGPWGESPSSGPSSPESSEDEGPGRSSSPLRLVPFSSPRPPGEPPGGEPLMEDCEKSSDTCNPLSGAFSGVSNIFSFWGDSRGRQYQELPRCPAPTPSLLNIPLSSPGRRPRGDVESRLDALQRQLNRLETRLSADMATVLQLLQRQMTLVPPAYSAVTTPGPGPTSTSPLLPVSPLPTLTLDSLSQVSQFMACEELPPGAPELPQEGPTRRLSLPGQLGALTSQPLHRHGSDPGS
row,SMILES,"hERG current change (%, negative = inhibition) at 10uM [%]"
1,CCCCn1c(N)c(N(CC(C)C)C(=O)C2CCN(S(=O)(=O)c3ccc(Cl)cc3)CC2)c(=O)[nH]c1=O,8.91
2,COc1cc2cc(C(=O)N(C)C3CCS(=O)(=O)C3)[nH]c2cc1OC (stereo not drawn),14.4
3,COc1ccc(C2=NNC(=Nc3cc(S(=O)(=O)N(C)C)ccc3C)SC2)c(OC)c1,2.69
4,O=C(CSc1nc2ccccc2[nH]1)Nc1ccc(F)cc1,-12.6
5,CCN(CC)CCCNC(=S)N(Cc1ccco1)Cc1cc2cc3c(cc2[nH]c1=O)OCCO3,-5.93
6,Cc1csc(NC(=O)c2ccc(C)c(S(=O)(=O)N3CCCCC3)c2)n1,-14.3
7,Cl.OC1(c2ccccc2)CCN(Cc2ccccc2)C2CCCCC21 (stereo not drawn),-15.6
8,Cc1cc(NNC(=O)c2ccccc2)nc(NNC(=O)c2ccccc2)n1,15.8
9,Cc1[nH]c(-c2ccc(F)cc2)cc1C(=O)N1CCN(c2cccc(Cl)c2)CC1,-12
10,CC(C)C(=O)Nc1cc(C(F)(F)F)ccc1-n1ccnc1,3.41
11,Cc1nonc1C(=O)N/N=C/c1cccc(O)c1,-5.79
12,COc1cc(NC(=O)c2c(Cl)cnn2C)c(OC)cc1Cl,15.3
13,COC(=O)C1=C(c2c(C)noc2C)C[C@@H]2CC[C@H]1N2C(=O)NCc1ccco1,19
14,Cc1cccc(C(=O)OC(C)C(=O)NCC2CCCCC2)c1O (stereo not drawn),1.32
15,Cc1cccc(C)c1NC1=NCCCS1,-10.6
16,Cc1ccccc1NC(=O)Cc1nnc(N)s1,11.3
17,Cc1ccc(-c2nc3cnccn3c2Nc2ccc3c(c2)OCO3)cc1,-25.7
18,COc1ccc(-c2nnn(CC(=O)NC(=O)NC3CCCCC3)n2)cc1OC,12.4
19,CCCC(=O)N1CCN(c2ccc(NC(=S)NC(=O)CC)cc2)CC1,-3.02
20,CC(NC(=O)OC(C)(C)C)C(=O)N1CCCC1C(=O)NC(Cc1ccccc1)C(N)=O (stereo not drawn) (Boc-Ala-Pro-Phe-NH2; configuration not given here),-1.92
21,O=C1NN(c2ccccc2)C(=O)/C1=C/c1coc2ccccc2c1=O,9.91
22,COc1ccc(CCNC(=O)c2cc(=O)c3cc(C)ccc3o2)cc1,-9.11

row,SMILES,"hERG current change (%, negative = inhibition) at 10uM [%]"
1,O=[N+]([O-])c1ccc(OCc2cccc(COc3ccc([N+](=O)[O-])cc3)n2)cc1,11.7
2,Clc1ccc(NC2=NCCCCC2)cc1,-3.09
3,Cc1nc2ccc(NC(=O)N3CCOCC3)cc2nc1C,33.8
4,Cc1ccc(NC(=O)COc2ccc(C(=O)c3ccccc3)cc2)c(O)c1,10.2
5,COCc1cc(C)nc(SCC(=O)c2ccc(O)c(O)c2)c1C#N,6.86
6,Nc1nc2nc(-c3ccc(OCc4ccccc4)cc3)cc(C(F)(F)F)n2n1,4.07
7,O=C(c1ccc(S(=O)(=O)N2CCOCC2)cc1)N1CCN(c2ccc(F)cc2)CC1,-5.3
8,COC(=O)c1ccccc1NC(=O)CSc1nc(N)cc(=O)[nH]1,36.6
9,CCOC(=O)CNC(=O)Cn1cnc2c(nnn2-c2ccc(C)cc2)c1=O,3.96
10,Cc1ccc(CNC(=O)CSc2nnc3c(n2)[nH]c2ccccc23)cc1,19.6
11,CCOC(=O)c1cc(-c2ccc(C)cc2)n(CCC(=O)NCCCOC)c1C,-11.5
12,COc1cc(C(=O)Nc2cc(C)nn2-c2ccccc2)cc(OC)c1OC,7.53
13,Cc1ccnc(NC(=O)c2ccc3c(c2)NC(=O)C(C)S3)c1 (stereo not drawn),-1.36
14,O=C(NCCN1C(=O)S/C(=C\c2cccnc2)C1=O)C1=NN(c2ccccc2)C(=O)CC1,-6.3
15,CCCc1nc2ccccc2n1CCc1ccccc1,-7.44
16,C/C(Cn1nnc2ccccc21)=N\OC(=O)c1ccccc1C,-63.9
17,Cc1ccc(S(=O)(=O)c2c[nH]c3ccc(Cl)cc3c2=O)cc1,9.98
18,O=C(Nc1ccc2ccccc2c1)[C@@H]1C[C@H]1[C@@H](NP(=O)(c1ccccc1)c1ccccc1)c1ccccc1,32.1
19,O=C(CSc1cccc2cccnc12)Nc1ccccc1F,-2.94
20,CSCCC(C(=O)O)N1C(=O)c2ccc(C(=O)O)cc2C1=O (stereo not drawn),14.2
21,CC(=O)N1CCCc2cc(S(=O)(=O)NCCC3=CCCCC3)ccc21,-15.9
22,O=C(NCc1ccccc1Br)c1ccc2c(c1)OCCO2,5.54

row,SMILES,"hERG current change (%, negative = inhibition) at 10uM [%]"
1,Cc1ccc(S(=O)(=O)NNC(=O)c2cnn(-c3ccc(Cl)cc3)c2C(F)(F)F)cc1,12.7
2,Cc1cc2c(NC(=O)CC(C)(C)CC(=O)O)cccc2nn1,6.54
3,O=C(NCCc1c[nH]c2ccccc12)C(=O)Nc1cc2c3c(c1)CC(=O)N3CCC2,1.46
4,COc1ccc(CCNC(=O)C(=O)Nc2ccc3nc4n(c(=O)c3c2)CCCCC4)cc1OC,-27.3
5,O=C1CC(SC(=Nc2ccccc2)Nc2ccccc2)C(=O)N1c1ccc(Cl)c(Cl)c1 (stereo not drawn),9.05
6,O=C(O)/C=C/C(=O)Nc1ccc(O)cc1,11.7
7,CCCS(=O)(=O)N1CCC(C(=O)NCCCN2CCCC2=O)CC1,13
8,CC(=O)NC1C(OCc2ccccc2)OC(CO)C(OC(C)=O)C1OC(C)=O (stereo not drawn),-16.9
9,CC(NS(=O)(=O)c1ccccc1)C1COc2ccccc2O1 (stereo not drawn),-4.88
10,Cc1cccc(N=Cc2[nH]c3ccc(Br)c(Cl)c3c2O)c1,20.6
11,CC(C)O.CN1CCc2c(c3c(n2C)CCN(C)[C@@H]3c2cccnc2)[C@H]1c1cccnc1.Cl,-7.28
12,O=C(NC(=S)NCCN1CCOCC1)c1ccccc1Cl,1.69
13,CC12CCC(C/C1=N/NC(=O)Nc1ccccc1)C2(C)C (stereo not drawn),9.49
14,Cn1c2ccccc2c2ncn(CCCN3CCOCC3)c(=O)c21,-16.6
15,CCN(CC)C(=O)COc1ccc(-c2nnc(N3CCCCC3)c3ccccc23)cc1,-25.4
16,COc1ccc(C(=O)NCCSCc2ccccc2C)cc1,-39.3
17,COc1cccc(CNC(=O)CCC2CCCN(C/C=C/c3ccccc3OC)C2)c1 (stereo not drawn),-68.5
18,CCCCC(O)(CCCC)C(=O)NN(C(=O)CCl)c1ccccc1,14.9
19,Cc1ccccc1N1CCN(S(=O)(=O)c2ccccc2)CC1,0.732
20,COc1ccccc1C1C(C(N)=O)=C(C)Nc2ncnn21 (stereo not drawn),-9.08
21,CCC(C)(C)NC(=O)C(c1ccc(OC)cc1)N(C(=O)CCC(=O)Nc1cc(C)on1)c1ccc2c(c1)OCCO2 (stereo not drawn),11.1
22,C#CC[N+](C)(C)CC#Cc1ccccc1.[Br-],13.3

row,SMILES,"hERG current change (%, negative = inhibition) at 10uM [%]"
1,O=c1oc2ccc3ccccc3c2cc1-c1nc2ccccc2o1,14
2,O=C(Nc1ccccc1)N1CCn2c1nc1ccccc12,4.15
3,COC(=O)N/N=C/c1cn(CCCOc2ccccc2)c2ccccc12,-4.14
4,Cc1cccc(C)c1NC(=O)C(c1cccc([N+](=O)[O-])c1)N(C)C(=O)c1ccccn1 (stereo not drawn),-22.5
5,O=C(Cn1nnc2ccccc2c1=O)Nc1cc(C(F)(F)F)ccc1N1CCOCC1,-14.5
6,C/C(CC(=O)Nc1ccc(Cl)c(C(F)(F)F)c1)=N\NC(=O)c1cccc(O)c1,-24
7,CCOC(=O)C1=NNC(C(=O)c2ccccc2)C1c1ccc(OC)cc1 (stereo not drawn),-5.14
8,O=[N+]([O-])c1ccc(N2CCCCC2)c2ncccc12,-23.7
9,Cc1[nH]c2ccccc2c1NC(=O)CN1CCN(C(=O)c2ccco2)CC1,-1.34
10,O=C(Nc1ccc(N2CCCC2)cc1)c1ccc2ccccc2c1,0.743
11,Cc1ccc(N2C(=O)c3cccc4c([N+](=O)[O-])ccc(c34)C2=O)c2cccnc12,2.27
12,O=C(c1ccc([N+](=O)[O-])cc1)N1CCN(C(=O)c2cccs2)CC1,-70.3
13,COc1cccc(OC(=O)c2cc3ccccc3oc2=O)c1,-1.21
14,CCC1CCCCN1S(=O)(=O)c1ccc(NC(=O)CSc2ncccc2C(=O)O)cc1 (stereo not drawn),-6.73
15,CCCSc1nnc(NC(=O)Nc2ccc(F)cc2)s1,5.54
16,O=C(NC1CCCC1)C1CC(=O)N(c2ccc(F)cc2)C1 (stereo not drawn),22.7
17,CC(=O)NC(CC(=O)NC1CCCCC1)c1ccccc1 (stereo not drawn),-2.93
18,COCCCNC(=O)c1ccccc1NS(C)(=O)=O,4.15
19,COCCOC(=O)C1=C(C)NC(=O)NC1C1CC=CCC1 (stereo not drawn),0.101
20,Cn1c(=O)c2c(-c3ccccc3)n(N3CCOCC3)cc2n(C)c1=O,-19.9
21,NC(=O)c1nsc(C(=O)N(Cc2ccco2)C(C(=O)NCc2ccccc2)c2ccc(O)cc2)c1N (stereo not drawn),-34.5
